Assay results: the BET-seq Pho4 binding data (Le et al. 2018)
This is one part of the list. The energies were worked out here from pooled read counts, against the library average; single values are noisy.

Target: T1, Pho4 (S. cerevisiae) (UniProt P07270)
T1 sequence: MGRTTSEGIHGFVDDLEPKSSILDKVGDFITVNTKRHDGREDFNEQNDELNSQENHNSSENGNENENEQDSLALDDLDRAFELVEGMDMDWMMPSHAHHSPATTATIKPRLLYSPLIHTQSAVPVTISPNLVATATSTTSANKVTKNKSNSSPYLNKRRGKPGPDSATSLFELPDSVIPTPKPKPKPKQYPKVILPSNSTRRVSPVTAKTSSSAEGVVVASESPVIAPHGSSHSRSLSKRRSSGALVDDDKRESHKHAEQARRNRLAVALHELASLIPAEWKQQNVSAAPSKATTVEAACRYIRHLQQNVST
Test: relative binding free energy (BET-seq); higher = weaker binding
Conditions: reference: library average

Sequence | relative binding free energy [kcal/mol]
TTGTACACGTGGGACG | 0.03
TATTTCACGTGTGGAC | 0.25
GGAGTCACGTGGGATG | -0.01
TGCAGCACGTGTAGTG | -0.02
GTTCGCACGTGTAGGC | 0.03
AGTATCACGTGTGGTC | 0.2
TGGTTCACGTGAATTC | 0.38
TTGGGCACGTGGCGGA | -0.21
CATAGCACGTGTTGGG | -0.2
TAACTCACGTGGTGTG | 0.21
GTTGCCACGTGTGGAG | 0.01
TCTGGCACGTGGGGTT | -0.16
GGGCGCACGTGGTATG | -0.11
AGGATCACGTGTGAAA | 0.24
TGGCACACGTGACGGG | 0.12
TAGTCCACGTGTGTTG | -0.05
TGAGTCACGTGGGTCG | -0.05
GAGAGCACGTGTAGGA | -0.04
GTAGGCACGTGGCGGC | -0.15
AGTGGCACGTGTCTTT | -0.12
GCTTTCACGTGAGTGT | 0.25
GGAAGCACGTGTTTAA | 0.1
TTTTGCACGTGCGACG | 0.02
GTGGTCACGTGTGTCT | 0.08
CCGGGCACGTGGGGGA | -0.36

Sequence | relative binding free energy [kcal/mol]
AGGGTCACGTGTGAGC | 0.14
TTACTCACGTGTCGGT | 0.21
ATGTACACGTGCATTG | -0.03
TTAATCACGTGAGCTG | 0.34
GTATACACGTGGGATG | -0.15
GAAGTCACGTGCATGG | 0.19
TTGGTCACGTGAAGTA | 0.29
TTTCTCACGTGGGAAT | 0.15
TGTAGCACGTGTACTT | -0.14
TTAGTCACGTGGGGTC | -0.06
GTAATCACGTGGTCGC | 0.31
GGTTTCACGTGGATAC | 0.25
TTGGGCACGTGAGACG | -0.01
AGCTGCACGTGTTATG | 0.05
AGTTGCACGTGGGTGA | -0.11
AGGTTCACGTGAACAG | 0.45
ATAATCACGTGTTATA | 0.12
AAAGTCACGTGGAAAT | 0.37
GAGTGCACGTGGAGAT | 0.04
TAATGCACGTGTAGTT | 0.07
GTTTACACGTGTCGGT | 0.26
GTAGCCACGTGGTTTG | -0.06
TCGGTCACGTGGGAGG | 0.08
AATTGCACGTGTGGTT | 0.05
TTGGGCACGTGTGAAC | -0.14

Sequence | relative binding free energy [kcal/mol]
TATAGCACGTGCGGGT | -0.1
AAATCCACGTGGGTTT | 0.05
CGAGTCACGTGATGAT | 0.32
GAAGTCACGTGTGTCG | 0.13
TTTCTCACGTGAGTGC | 0.45
AGTCTCACGTGTATGA | 0.27
ATCGGCACGTGGGGTG | -0.42
GAGGGCACGTGTGTTC | -0.06
TTATCCACGTGAGGGT | 0.1
TGTCTCACGTGTTGTG | 0.22
TTTAACACGTGGTAAC | 0.06
TTCTTCACGTGGGAAT | 0.17
GTTGTCACGTGTCTTG | 0.04
GGGTACACGTGTCTAG | 0.1
AGCAGCACGTGTGGTG | -0.1
TAGTGCACGTGGATGA | -0.14
GAGGTCACGTGGCTGG | 0.18
GGGTGCACGTGATTGA | 0.04
ACATGCACGTGGGTTG | -0.27
TAGTACACGTGAAGTG | 0.1
GAGCGCACGTGGGGAG | -0.17
CGTGACACGTGGTTGT | -0.15
TGTTGCACGTGTGGTG | 0.16
TTATACACGTGGACAG | 0.2
TGGGCCACGTGGGTGA | -0.18

Sequence | relative binding free energy [kcal/mol]
CCTTTCACGTGAGTGG | 0.35
TTCTGCACGTGGTCAG | -0.11
GTTAGCACGTGGTGGG | -0.1
ATAAACACGTGGGGGT | -0.24
AGATACACGTGGTGGT | -0.08
AAGGTCACGTGGTGCC | 0.08
TGTTTCACGTGTCAGG | 0.3
CGGGTCACGTGTTAGC | 0.27
AGGTACACGTGGTAGT | -0.01
TTGCGCACGTGCGGTT | -0.06
TTTGGCACGTGGAGAG | -0.08
TTGGCCACGTGGGTGG | -0.15
TAATACACGTGAAGGG | 0.24
TTAGGCACGTGGTCCG | -0.06
AAGGACACGTGCTAGT | 0.18
CTAGGCACGTGGAATT | -0.05
AATGCCACGTGTGTTT | 0.02
ATCGACACGTGGTATT | 0.05
AGGGGCACGTGATCTG | -0.01
TTATTCACGTGTTTGA | 0.24
TGCTACACGTGGTAAG | 0.24
TAGGCCACGTGATAGG | 0.04
GCAGTCACGTGGGATG | 0.05
GGGAACACGTGGTTCG | 0.04
TTCGACACGTGGGTAA | -0.12

Sequence | relative binding free energy [kcal/mol]
TGTTCCACGTGGTGTT | -0.07
TTTTTCACGTGTCAGG | 0.23
TTAGGCACGTGTGTGG | -0.09
GTGGGCACGTGTTGTT | 0.06
TTGCGCACGTGGGGGG | -0.27
TGGGACACGTGTGTGA | 0.04
GTGGCCACGTGGATGG | -0.02
ATCAACACGTGGGTGG | -0.23
TTGGCCACGTGCAGTG | -0.08
CGTTGCACGTGAGCTT | 0.19
GGTTGCACGTGCCTAG | 0.07
GCGTGCACGTGTAGCG | 0.07
GGTGTCACGTGTGCAG | 0.07
GGACTCACGTGGAGGG | 0.12
TGGGGCACGTGAGGAA | 0.16
TTCTGCACGTGAAAGG | 0.24
GCTTGCACGTGTCGGT | 0.16
GATATCACGTGTGGTT | 0.16
GGCGGCACGTGGGATC | -0.07
TCGTTCACGTGGTTGG | 0.4
GGCTGCACGTGGTGTT | -0.09
ATAGTCACGTGTTCTG | 0.16
GTGGTCACGTGGAGGC | 0.2
TGAGGCACGTGGTATT | -0.09
CTTGTCACGTGAGGAT | 0.34

Sequence | relative binding free energy [kcal/mol]
TGCTCCACGTGTTGGT | -0.03
TTATTCACGTGGAATG | 0.34
AGAGGCACGTGGCTTG | -0.15
ATATTCACGTGATTGA | 0.37
GATAGCACGTGATGTT | 0.05
TGTCCCACGTGGGGGC | -0.26
CGTGTCACGTGGGGGC | -0.06
AATGACACGTGGCGGG | 0.06
TTTCTCACGTGATGTC | 0.44
TAGGCCACGTGTTAAT | 0.02
GGCGACACGTGGGGGC | -0.1
CGAAACACGTGTGTGT | -0.07
TTTGTCACGTGGATTA | 0.02
CGTCGCACGTGGTTGA | -0.07
CGCTTCACGTGTGGGG | 0.17
TTTAGCACGTGTTAGC | 0.02
GGGCACACGTGTGGTG | 0.19
GGCTGCACGTGTGTGA | 0.09
AAATGCACGTGGCTTG | -0.08
GATTGCACGTGATTTA | 0.15
TGGATCACGTGTTTTC | 0.37
